# Experimental data from paper PMC4336329 (PLoS ONE, 2015).
# Out of some 310,000 compounds screened, about 2,200 (0.71%) showed an effect of 50% or more. The effect is printed as a negative number. Some of the results follow.
# Target: human ether-à-go-go-related gene (hERG) potassium channel (human, UniProt Q12809)
# Test: primary screen, population patch clamp on CHO cells stably expressing hERG
# Chain of human ether-à-go-go-related gene (hERG) potassium channel (Q12809 whole entry, looked up): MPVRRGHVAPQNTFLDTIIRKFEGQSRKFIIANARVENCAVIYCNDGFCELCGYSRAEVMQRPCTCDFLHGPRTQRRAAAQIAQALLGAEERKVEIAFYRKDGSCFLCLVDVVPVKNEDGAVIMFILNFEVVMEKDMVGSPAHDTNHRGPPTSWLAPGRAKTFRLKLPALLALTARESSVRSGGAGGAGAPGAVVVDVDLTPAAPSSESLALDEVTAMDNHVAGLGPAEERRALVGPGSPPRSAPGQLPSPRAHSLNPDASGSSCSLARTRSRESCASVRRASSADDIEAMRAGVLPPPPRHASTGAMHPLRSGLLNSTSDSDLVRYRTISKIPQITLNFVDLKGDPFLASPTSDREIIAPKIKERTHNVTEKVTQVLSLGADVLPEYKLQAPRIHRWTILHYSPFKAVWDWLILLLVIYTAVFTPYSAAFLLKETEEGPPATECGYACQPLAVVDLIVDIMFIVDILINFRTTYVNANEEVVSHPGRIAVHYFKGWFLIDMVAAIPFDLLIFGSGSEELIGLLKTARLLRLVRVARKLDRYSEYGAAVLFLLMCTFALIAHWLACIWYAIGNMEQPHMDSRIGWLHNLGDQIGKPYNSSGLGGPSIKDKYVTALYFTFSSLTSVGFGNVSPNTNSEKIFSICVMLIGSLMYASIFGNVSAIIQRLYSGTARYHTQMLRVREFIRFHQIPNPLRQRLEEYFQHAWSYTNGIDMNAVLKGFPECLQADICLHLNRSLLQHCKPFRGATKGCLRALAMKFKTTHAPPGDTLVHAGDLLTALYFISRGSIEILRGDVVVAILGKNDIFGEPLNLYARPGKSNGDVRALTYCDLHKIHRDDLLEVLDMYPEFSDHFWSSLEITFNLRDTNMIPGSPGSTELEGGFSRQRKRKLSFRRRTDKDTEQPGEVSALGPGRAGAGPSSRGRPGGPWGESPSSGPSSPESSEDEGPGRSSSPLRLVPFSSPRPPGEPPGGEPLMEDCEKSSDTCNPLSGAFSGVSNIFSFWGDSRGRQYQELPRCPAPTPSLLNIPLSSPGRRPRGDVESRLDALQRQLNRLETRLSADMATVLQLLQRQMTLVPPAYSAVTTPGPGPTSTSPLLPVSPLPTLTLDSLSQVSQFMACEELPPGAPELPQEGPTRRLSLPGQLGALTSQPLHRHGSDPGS
row,Compound,"hERG current change (%, negative = inhibition) at 1uM"
1,Cc1cc(C)c(NC(=O)COC(=O)c2ccc([N+](=O)[O-])s2)c(C)c1,4.26%
2,Cc1cccc2cc(COC(=O)C(C)(C)C)c(=O)[nH]c12,10.8%
3,CC1CCCCC1NC(=O)CSc1nnc(-c2ccco2)n1C (stereo not drawn),12.1%
4,Cc1ccc(/C=N/n2c(C)nnc2C)cc1,3.87%
5,Cc1ccc(SCc2ccc(C(=O)N3CCCC3)cc2)cc1,8.25%
6,CC(C)C12CN3CC(C(C)C)(CN(C1)C31C(=O)Nc3ccccc31)C2=O (stereo not drawn),12.3%
7,CN(C)S(=O)(=O)N(CC(=O)Nc1ccc(F)c(F)c1)c1ccccc1,-11.5%
8,CC(c1ccncn1)N(C)Cc1nc(Cc2ccccc2F)no1 (stereo not drawn),17.7%
9,COc1ccc2sc(C)nc2c1NC(C)=O,8.19%
10,CCOc1ccc(C2/C(=C(/O)c3ccc4c(c3)CC(C)O4)C(=O)C(=O)N2CC2CCCO2)cc1 (stereo not drawn),9.37%
11,CC(=O)N1CCc2c(sc(NC(=O)Cc3ccc(F)cc3)c2C#N)C1,17.6%
12,CCC(CO)Nc1ccc(-c2nn(C)c(=O)c3ccccc23)cc1[N+](=O)[O-] (stereo not drawn),0.743%
13,CCOc1ccccc1NC(=O)N1CCC(c2nc3ccccc3[nH]2)CC1,-7.7%
14,CC(=O)O[C@H]1CC[C@H]2[C@@H]3CCc4cc(O)ccc4[C@H]3CC[C@]12C,-2.87%
15,CCCCN(CCCNC(=O)C1CCN(S(=O)(=O)CC)CC1)c1ccccc1,-16.8%
16,COC(=O)c1ccc(N2C(=O)CC(N(C)Cc3ccccc3)C2=O)cc1 (stereo not drawn),13.1%
17,Cc1ccc(C2=NN(C(=O)CCC(=O)O)C(c3cccc([N+](=O)[O-])c3)C2)cc1 (stereo not drawn),15.6%
18,Cc1ccc(C(O)(C(=O)NN(C(=O)c2ccccc2)c2ccccc2)c2ccc(C)cc2)cc1,5.32%
19,Cc1ccccc1S(=O)Cc1ccc(C(=O)NCCN2CCOCC2)o1 (stereo not drawn),25.5%
20,COc1ccc(CCCC(=O)NCc2ccccc2)cc1C,12.7%
21,CC1(C)CC(=O)C2=C(C1)N(c1ccc(F)cc1)C(=O)CC2c1cccnc1 (stereo not drawn),10.1%
22,Fc1cccc(NC(=S)NCCN2CCOCC2)c1,4.14%
23,CC1(C)CC(=O)C(N=Nc2ccc(Br)cc2)=C(O)C1,9.56%
24,O=C(N/N=C/c1cccc(OC(=O)c2ccc3c(c2)OCO3)c1)c1cncc(Br)c1,15.6%
